Conditions: Gallus gallus; pH 5.5; 35 °C; GdnHCl; Fluorescence; potassium phosphate 0.05 M; reversible: yes

Lysozyme C wild type (sequence not shown)
denaturant midpoint (higher = more stable): 3.69 M | unfolding free energy: 10.4 kcal/mol

Reference: FireProtDB (doi:10.1093/protein/8.10.1023)
